Laboratory results published in the supplement of paper PMC4996465.

What was measured:
Nalm-6 [1] = assay: log AC50 of viability decrease (48 h) (log10 M); higher = less potent
Procedure: (§1)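 Eleven-dose screen of the NCATS MIPE 3 library on cells without co-treatment; CellTiter-Glo after 48 h. AC50 from the curve fit; only inhibitory curves of the better fit classes are listed.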

KB3-1 [2] = assay: as above
Procedure: as §1

Nalm-6 [3] = assay: viability (% of DMSO control); higher = more viable cells
Procedure: (§2)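 Eleven-dose screen of the NCATS MIPE 3 library on cells without co-treatment; CellTiter-Glo after 48 h, as % of DMSO wells.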

KB3-1 [4] = assay: as above
Procedure: as §2

Structure (SMILES) | log AC50 of viability decrease (Nalm-6 [1]; run: 1) | log AC50 of viability decrease (Nalm-6 [1]; run: 2) | log AC50 of viability decrease (KB3-1 [2]) | viability (Nalm-6 [3]; run: 1, 0.00078 µM) | viability (Nalm-6 [3]; run: 1, 0.00234 µM) | viability (Nalm-6 [3]; run: 1, 0.00702 µM) | viability (Nalm-6 [3]; run: 1, 0.0211 µM) | viability (Nalm-6 [3]; run: 1, 0.0632 µM) | viability (Nalm-6 [3]; run: 1, 0.19 µM) | viability (Nalm-6 [3]; run: 1, 0.569 µM) | viability (Nalm-6 [3]; run: 1, 1.71 µM) | viability (Nalm-6 [3]; run: 1, 5.12 µM) | viability (Nalm-6 [3]; run: 1, 15.4 µM) | viability (Nalm-6 [3]; run: 1, 46.1 µM) | viability (Nalm-6 [3]; run: 2, 0.00078 µM) | viability (Nalm-6 [3]; run: 2, 0.00234 µM) | viability (Nalm-6 [3]; run: 2, 0.00702 µM) | viability (Nalm-6 [3]; run: 2, 0.0211 µM) | viability (Nalm-6 [3]; run: 2, 0.0632 µM) | viability (Nalm-6 [3]; run: 2, 0.19 µM) | viability (Nalm-6 [3]; run: 2, 0.569 µM) | viability (Nalm-6 [3]; run: 2, 1.71 µM) | viability (Nalm-6 [3]; run: 2, 5.12 µM) | viability (Nalm-6 [3]; run: 2, 15.4 µM) | viability (Nalm-6 [3]; run: 2, 46.1 µM) | viability (KB3-1 [4]; 0.00078 µM) | viability (KB3-1 [4]; 0.00234 µM) | viability (KB3-1 [4]; 0.00702 µM) | viability (KB3-1 [4]; 0.0211 µM) | viability (KB3-1 [4]; 0.0632 µM) | viability (KB3-1 [4]; 0.19 µM) | viability (KB3-1 [4]; 0.569 µM) | viability (KB3-1 [4]; 1.71 µM) | viability (KB3-1 [4]; 5.12 µM) | viability (KB3-1 [4]; 15.4 µM) | viability (KB3-1 [4]; 46.1 µM)
CC(C)c1ccc(Cn2ccc3c4c(N)nc(NC5CC5)nc4ccc32)cc1 | -5.43 | -5.48 | -6.03 | 112% | 116% | 120% | 114% | 117% | 114% | 113% | 95.7% | 36.9% | 3.77% | 0.406% | 111% | 105% | 111% | 107% | 101% | 114% | 101% | 90.1% | 24.6% | 2.91% | 1.33% | 102% | 103% | 106% | 102% | 108% | 105% | 89.4% | 26.3% | 38.5% | 5.44% | 1.17%
CC(=O)Nc1ccc([C@H](C)C(=O)Nc2ncc(C(C)C)s2)cc1 | -6.28 | -6.53 | -6.18 | 76.9% | 85.6% | 89.8% | 93.2% | 98.7% | 75.3% | 49.4% | 12.3% | 12.6% | 14.3% | 7.86% | 96.9% | 98.3% | 103% | 99.5% | 99.3% | 68.2% | 35.1% | 11.1% | 13.9% | 15.1% | 8.48% | 94.1% | 95.2% | 94.2% | 98.5% | 96.4% | 75.4% | 65% | 28.8% | 20.3% | 18.8% | 12.2%
CC(C)CC(=O)Nc1n[nH]c2c1CN(C(=O)C1CCN(C)CC1)C2(C)C | -7.13 | -7.28 | -6.58 | 86.5% | 96.8% | 87.7% | 75.8% | 56.6% | 40.1% | 17.1% | 9.15% | 20.9% | 23.6% | 16.3% | 101% | 101% | 95.1% | 83% | 52.6% | 36.7% | 10.9% | 6.68% | 21.7% | 22.1% | 14.3% | 98.6% | 99.2% | 102% | 94.7% | 91.2% | 76.2% | 29% | 31.1% | 26.6% | 24.2% | 21.5%
CC1(C)OC/2=C(\[C@H](NCC3=CC=CC=C3)[C@@H]1O)C(=O)C4=CC=CC=C4C2=O | -5.63 | -5.58 | -4.88 | 128% | 133% | 129% | 135% | 130% | 117% | 116% | 90.3% | 24.1% | 9.83% | 8.46% | 107% | 112% | 110% | 111% | 109% | 107% | 94.2% | 82.4% | 22.3% | 5.63% | 4.3% | 103% | 110% | 106% | 110% | 108% | 106% | 113% | 110% | 109% | 47% | 5.37%
Cc1c(C(=O)Nc2cccc(C(F)(F)F)c2)cc(-c2ccccc2)n1CCCN1CCOCC1 | -5.33 |  | -4.63 | 102% | 104% | 114% | 96.1% | 76.3% | 72.6% | 60.4% | 57% | 56.4% | 32.9% | 0.304% | 102% | 104% | 104% | 107% | 100% | 99.8% | 99.1% | 106% | 111% | 108% | 2.41% | 102% | 102% | 109% | 91.5% | 96.2% | 99.7% | 94% | 90.2% | 90.5% | 87.8% | 45.4%
Cc1ccnc(NS(=O)(=O)c2ccc(NC(=O)Nc3ccc(S(=O)(=O)Nc4nccc(C)n4)cc3)cc2)n1 | -4.78 | -4.78 | -4.73 | 112% | 111% | 104% | 114% | 101% | 111% | 108% | 98.9% | 105% | 72% | 36.2% | 106% | 107% | 106% | 106% | 102% | 101% | 104% | 101% | 111% | 76.3% | 34.9% | 105% | 108% | 105% | 103% | 102% | 101% | 102% | 100% | 90.3% | 89.9% | 65.8%
CCOC\1=C(/C(=O)NC2=CC=C(OC3=C(Cl)C(=NC=C3)N)C(=C2)F)C(=O)N(\C=C1)C4=CC=C(F)C=C4 | -5.23 | -4.73 | -4.63 | 116% | 123% | 119% | 112% | 123% | 125% | 109% | 82.7% | 79.4% | 68% | 32.9% | 112% | 110% | 113% | 110% | 102% | 101% | 102% | 91.6% | 87.2% | 71.9% | 35.5% | 102% | 106% | 102% | 99.2% | 108% | 98.2% | 99.2% | 102% | 96.4% | 91.1% | 39.9%
CN(C)CCCN\C1=C\2C(=O)N(C)C(=O)\N=C2N(C)C3=C1C=CC=C3 | -4.93 | -5.13 | -5.13 | 111% | 112% | 109% | 117% | 108% | 116% | 124% | 107% | 76.9% | 56.3% | 19.6% | 102% | 102% | 104% | 107% | 99.2% | 102% | 101% | 101% | 79.9% | 13.1% | 20.5% | 103% | 102% | 104% | 105% | 99.8% | 98.3% | 103% | 92.7% | 54.7% | 43.4% | 14.7%
CN(C)CCN(C)C(=O)c1ccc(NC(=O)Nc2ccc(-c3nc(N4CCOCC4)c4ccn(CC(F)(F)F)c4n3)cc2)cc1 | -5.83 | -5.83 | -7.58 | 120% | 110% | 105% | 95.1% | 77.6% | 63.6% | 61.4% | 46.3% | 40.2% | 15.3% | -0.551% | 110% | 110% | 106% | 102% | 90.1% | 68.7% | 64.8% | 52.3% | 21.7% | 6.32% | 0.402% | 101% | 102% | 90.7% | 76.6% | 49.5% | 42.5% | 41.3% | 41.1% | 41.1% | 42.4% | 0.677%
Cc1nc(-c2ccc(-c3ccc(C(=O)N4CCc5cc6c(cc54)C4(CCN(C)CC4)CO6)cc3)c(C)c2)no1 | -7.13 | -4.63 | -4.58 | 97.6% | 103% | 94.5% | 74.9% | 60.4% | 3.61% | -1.05% | -1.76% | -2.1% | -2.05% | -2.25% | 76.1% | 82.4% | 99.6% | 102% | 102% | 105% | 112% | 108% | 103% | 84.4% | 1.51% | 97.4% | 98.1% | 95.8% | 100% | 101% | 94.7% | 93.3% | 99.4% | 101% | 87.4% | 0.488%

Viability of KB3-1 and Nalm-6 cells after 48 h of drug alone (CellTiter-Glo), 11 doses over about 4.5 log units. % of DMSO wells, lower = more cell loss; AC50 from the fitted curve, lower = more potent. No active / inactive call. Nalm-6 was screened in two runs. AC50 is listed only for well-fitted inhibitory curves. KB3-1 is a HeLa-derived carcinoma line, Nalm-6 a B-cell precursor leukaemia line.
